# Assay results from PubChem BioAssay AID488969 (Vanderbilt High Throughput Screening Facility, 2010).
# Whole data set: some 110,000 compounds, median “z-score” near -0.1, cut for the highest 2% near 2. The list shows a part of the results. Activity calls are given as the source filed them.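 How the source made its calls: active means z-score in the third read window above 3 or below -3; inactive means the rest.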
# Target: Metabotropic glutamate receptor 8 (Rattus norvegicus) (UniProt P70579)
# Assay: rat mGluR8 modulators via GIRK flux, primary screen, cell-based, thallium flux, HTS (AID 488969)
# Settings: HEK293 rat mGluR8, GIRK (G protein-gated inwardly rectifying potassium channel) thallium flux, FluoZin2; at 10 µM; stronger effect = higher value; submaximal glutamate (EC20) added with thallium
# Chain of UniProt P70579 (P70579 whole entry, looked up): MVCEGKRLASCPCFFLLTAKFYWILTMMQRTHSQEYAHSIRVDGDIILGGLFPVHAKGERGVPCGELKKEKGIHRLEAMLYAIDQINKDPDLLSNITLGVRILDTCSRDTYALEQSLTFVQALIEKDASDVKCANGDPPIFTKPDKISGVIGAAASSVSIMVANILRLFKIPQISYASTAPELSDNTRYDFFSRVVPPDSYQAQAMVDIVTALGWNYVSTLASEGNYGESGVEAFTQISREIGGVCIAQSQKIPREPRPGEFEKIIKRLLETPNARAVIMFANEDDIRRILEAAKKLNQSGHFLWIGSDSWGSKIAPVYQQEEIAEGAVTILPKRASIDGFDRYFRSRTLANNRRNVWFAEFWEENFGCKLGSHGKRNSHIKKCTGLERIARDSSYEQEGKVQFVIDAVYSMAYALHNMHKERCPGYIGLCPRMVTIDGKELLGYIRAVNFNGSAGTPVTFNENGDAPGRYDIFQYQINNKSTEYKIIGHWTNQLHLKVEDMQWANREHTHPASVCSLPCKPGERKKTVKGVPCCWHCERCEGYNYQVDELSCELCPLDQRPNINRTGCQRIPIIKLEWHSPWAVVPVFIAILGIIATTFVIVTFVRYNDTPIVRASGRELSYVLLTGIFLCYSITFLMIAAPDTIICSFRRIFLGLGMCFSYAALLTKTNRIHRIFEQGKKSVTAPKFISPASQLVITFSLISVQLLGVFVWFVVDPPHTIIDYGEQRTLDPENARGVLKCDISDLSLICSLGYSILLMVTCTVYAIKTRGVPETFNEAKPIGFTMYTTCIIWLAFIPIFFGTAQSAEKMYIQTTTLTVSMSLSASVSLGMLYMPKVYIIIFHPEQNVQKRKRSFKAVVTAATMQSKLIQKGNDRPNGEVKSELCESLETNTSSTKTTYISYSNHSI
row,Structure (SMILES),z-score
1,Cc1ccc(CNc2ncccc2-c2nc3cc(Cl)ccc3o2)cc1,0.176
2,CCOc1ccc(C(=O)NCC(=O)OCC(=O)N2CCC(C)CC2)cc1,0.0156
3,NC(=O)Cn1nnc(-c2ccccc2NC(=O)c2cnccn2)n1,0.313
4,CCCCCn1c(CNC(=O)CCC)nc2ccccc21,-0.492
5,O=c1oc(-c2ccco2)nc2ccccc12,-0.973
6,O=C(c1ccc(S(=O)(=O)N2CCOCC2)cc1)N1CCN(c2cccc(Cl)c2)CC1,-0.306
7,CCSc1nnc(-c2cccc(S(=O)(=O)N(C)C)c2)n1-c1cc(OC)ccc1OC,-0.248
8,C#CC[N+]1(CC#Cc2ccc(C)cc2)CCCCC1,-0.00534
9,Cc1[nH]c2ccccc2c1/C=N/Nc1ccc([N+](=O)[O-])cc1,-0.0633
10,CCOC(=O)c1c(NC(=O)CSc2n[nH]c(CNc3ccccc3)n2)sc(C)c1C,0.246
11,O=C(c1cccc(N2CCCC2=O)c1)N1CCOCC1,0.00471
12,C=CCNc1nc(N2CCOCC2)nc(N2CCOCC2)n1,0.263
13,COc1ccc(N(CC(=O)N2CCc3ccccc3C2)S(=O)(=O)c2c(C)[nH]c(=O)[nH]c2=O)cc1,0.0182
14,CCCC(=O)Nc1ccccc1Sc1ncnc2scc(-c3ccccc3)c12,-1.02
15,O=C(NC1CCS(=O)(=O)C1)c1cccc(S(=O)(=O)N2CCOCC2)c1 (stereo not drawn),0.0358
16,COc1ccc(/C=C2\CN(Cc3ccccc3)C/C(=C\c3ccc(OC)cc3OC)C2=O)c(OC)c1,-0.152
17,Cc1ccc(-n2[nH]c(C)c(C=Nc3ccc(S(=O)(=O)Nc4nccs4)cc3)c2=O)cc1C,0.00623
18,CC(C)CCNC(=O)CN(Cc1cccs1)C(=O)CCC(=O)Nc1nccs1,0.0871
19,CCOC(=O)C1CCCN(C(=O)c2cnn3c(C(F)(F)F)cc(-c4ccccc4)nc23)C1 (stereo not drawn),-2.11
20,N/C(CSc1nc(-c2ccccc2)c(-c2ccccc2)o1)=N\O,-0.125
21,Cc1cc(-c2ccccc2)n2nc(C)c(C#N)c2n1,-0.193
22,CCc1cc2c(=O)n(-c3ccccc3)cnc2s1,0.606
23,CC(C(=O)O)N1C(=O)/C(=C/c2cccn2C)SC1=S (stereo not drawn),-0.0659

row,Structure (SMILES),z-score
1,CCC(C)(C)NC(=O)C(c1ccco1)N(C(=O)Cn1nnc2ccccc21)c1ccc2c(c1)OCO2 (stereo not drawn),-0.197
2,O=C(Nc1ccccc1-c1nc2ccccc2s1)C1=COCCO1,-0.321
3,CS(=O)(=O)N(CC(=O)N1CCC(C(N)=O)CC1)c1ccc(Cl)c(C(F)(F)F)c1,-0.126
4,O=C(/C=C/c1ccccc1)NC1CC2CCC1C2 (stereo not drawn),-0.0435
5,COc1ccc(C/C(N)=N/n2cnnc2)cc1Cl,-0.163
6,Cc1ccc(N/N=C/c2ccc3c(c2)OCCO3)cc1Cl,0.0954
7,O=C(c1ccc(S(=O)(=O)c2ccccc2Cl)c([N+](=O)[O-])c1)N1CCCCCC1,1.74
8,COc1ccccc1-c1nc2ccccc2nc1-c1ccccc1,1.12
9,COc1ccc(CCC(=O)Nc2cccc(Cl)c2)cc1,0.0236
10,Cc1cccn2c(=O)c(C=NCCO)c(NCc3ccco3)nc12,-0.648
11,N#Cc1c(N)nc2c(c1-c1ccc(Br)s1)CCCC2,-0.0949
12,O=c1c[n+]([O-])c2ccccc2n1OCc1c(F)cccc1F,-0.298
13,Cc1ccc(S(=O)(=O)N2CCN(S(=O)(=O)c3ccc(C)cc3)C2c2ccccc2)cc1,-0.0627
14,O=C(CCc1nc2ccccc2[nH]1)Nc1ccc2c(c1)OCO2,0.16
15,CCNCCC(=O)N1c2ccccc2Sc2ccc(NC(=O)OCC)cc21,0.729
16,CC(C)C(NC(=O)C1CCCCC1)C(=O)NC1=NCCS1 (stereo not drawn),-0.245
17,COc1ccc(CCN2C(=O)C(Oc3ccccc3C)C2c2ccc3c(c2)OCO3)cc1 (stereo not drawn),-0.223
18,CCCCCC1CCC(C(=O)NNC(=S)NCC)CC1 (stereo not drawn),0.796
19,COc1ccc(-c2cc(C(=O)O)c(C)o2)cc1OC,0.776
20,Cc1cc(C(=O)OCC(=O)Nc2cc(S(=O)(=O)N3CCOCC3)ccc2Cl)c(C)o1,-0.838
21,O=c1[nH]cnc2c1cnn2Cc1ccccc1,0.446
22,CC(=O)Nc1ccc(-c2nnc(SCc3c(C)cc(C)cc3C)n2C)cc1,-0.514
23,Cc1ccc(OCC(=O)Nc2ccc(Cl)cc2)c(-n2nc3ccccc3n2)c1,-0.38

row,Structure (SMILES),z-score
1,CC(=O)Oc1cc2c(cc1Cl)C1(CC(c3ccccc3Cl)O2)CC(C)(C)NC(=S)N1 (stereo not drawn),0.197
2,COc1cccc(-c2nnc(Nc3nc4c(F)cccc4s3)o2)c1,active: 17.4
3,COc1cccc(-c2nnc(NC(=O)c3ccc(S(=O)(=O)N(CC(C)C)CC(C)C)cc3)o2)c1,-0.14
4,Cc1cccc(OCCCC(=O)Nc2ccc(S(=O)(=O)Nc3onc(C)c3C)cc2)c1C,0.102
5,CC(C)(C)NC(=O)C1Cc2ccccc2CN1C(=O)Nc1ccccc1Cl (stereo not drawn),-0.221
6,Cc1cc(=O)oc(C)c1C(=O)N1CCN(Cc2ccc3c(c2)OCO3)CC1,0.55
7,N#CCc1c(C#N)c(N)nc(N2CCN(S(=O)(=O)c3ccccc3)CC2)c1C#N,-0.145
8,Cc1cccc(NC(=O)CCC(=O)OCC(=O)c2ccc(Oc3ccc([N+](=O)[O-])cc3)cc2)c1,-0.263
9,C1=C(c2ccccc2)N2CCN=C2S1,0.0464
10,CC(=O)CSc1nnc(Cc2ccc3c(c2)OCO3)o1,0.172
11,O=C(COC(=O)C1CCCCC1)Nc1ccc(N2CCCCC2)cc1,-0.4
12,COc1cc(-c2nnc(COC(=O)c3cc(C)nc4ccc(C)cc34)o2)cc(OC)c1OC,-0.548
13,CC(/C=N\NC(=O)c1cc(C)oc1C)=C\c1ccccc1,-0.0428
14,CC1Cc2cc(/C(O)=C3/C(=O)C(=O)N(Cc4ccco4)C3c3cccs3)ccc2O1 (stereo not drawn),-0.913
15,O=C(O)c1ccccc1OCCOCCOc1ccccc1C(=O)O,0.114
16,Cc1ccc(C(C)NC(=O)/C(C#N)=C\c2c(C)[nH]c3ccccc23)cc1 (stereo not drawn),-0.139
17,Cc1cc2c(c(=O)n1C)C(Cc1ccccc1)C(C#N)=C(N)O2 (stereo not drawn),-0.0341
18,CCOP(=O)(OCC)C(NC(=O)Nc1ccccc1)c1ccccc1 (stereo not drawn),0.0239
19,Cc1cc(/C=C(/C#N)c2cccc(F)c2)c(C)n1-c1cccnc1,0.326
20,Cc1nn(-c2ccccc2)c(Cl)c1C1C(C#N)=C(N)Oc2c1c(C)nn2-c1ccccc1 (stereo not drawn),-0.407
21,CCCC(=O)N1CCN(c2ccc(NC(=O)c3ccc(Br)o3)cc2)CC1,-0.188
22,CCOC(=O)CC1C(=O)NC2CCCCC2N1C(=O)Nc1ccc(Cl)cc1 (stereo not drawn),0.146
